# Measurements from the supplement of paper PMC8728848.
# The other results are listed elsewhere or left out.
# B1: SP15308A-bot-339-19-339 (Bacteroides ovatus) (protein)
# chain: ACNNEWEDEQYEQYISFKSPIPAGGEGVTDIYVRYKEDGKVTYRLPIVVSGSTTNTLDREVHIAVDKDTLETLNIERFSIHRPGLWYTALEEDKYDFPKTVHISAGSSVEQLNIDFNLQGIDMLEKWVLPLTIVDDPSYNYKSHPRKNYAKALLRVIPFNNYSGSYTSSAMKVYTYINGKPDTNARTANKRTGYVINDNTVFFYAGLISEDLDKEVREKYKINVHFNEDGTLHMEQGDPTNKMKFELIGTPTYSKTSVMDATRPYLERRYVQIMFEYDFEDFSYGGNGVDVIPIKYKVEGSMTLQRNINTQIPDEDQQIEW
# Tests used:
# Test in all cases: glycan array binding signal (z-score within array); higher = stronger binding
# Conditions in all cases: glycan notation: IUPAC condensed, linker removed
# [1] = biological target: Neu5Ac(a2-3)GalNAc
# Summary of the method: (§1)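 The binding signal is a Z-score computed within each array and averaged over linkers. Arrays of the same protein sequence at different concentrations or buffers were also averaged together. Data originate from 3228 arrays in the Consortium for Functional Glycomics database, kept only where the protein sequence was available.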
# [2] = biological target: Neu5Ac(a2-3)GalNAc(b1-4)GlcNAc
# Summary of the method: as §1
# [3] = biological target: Neu5Ac(a2-3)[GalNAc(b1-4)]Gal(b1-4)Glc
# Summary of the method: as §1
# [4] = biological target: Neu5Ac(a2-3)[GalNAc(b1-4)]Gal(b1-4)GlcNAc
# Summary of the method: as §1
# [5] = biological target: Neu5Ac(a2-3)[GalNAc(b1-4)]Gal(b1-4)GlcNAc(b1-3)GalNAc
# Summary of the method: as §1
# [6] = biological target: Neu5Ac(a2-3)[Neu5Ac(a2-6)]GalNAc
# Summary of the method: as §1
# [7] = biological target: Neu5Ac(a2-6)Gal
# Summary of the method: as §1
# [8] = biological target: Neu5Ac(a2-6)Gal(b1-3)GlcNAc(b1-3)[Gal(b1-4)GlcNAc(b1-6)]Gal(b1-4)Glc
# Summary of the method: as §1
# [9] = biological target: Neu5Ac(a2-6)Gal(b1-4)Glc
# Summary of the method: as §1
# [10] = biological target: Neu5Ac(a2-6)Gal(b1-4)GlcNAc
# Summary of the method: as §1
# [11] = biological target: Neu5Ac(a2-6)Gal(b1-4)GlcNAc(b1-2)Man
# Summary of the method: as §1
# [12] = biological target: Neu5Ac(a2-6)Gal(b1-4)GlcNAc(b1-2)Man(a1-3)Man(b1-4)GlcNAc(b1-4)GlcNAc
# Summary of the method: as §1
# [13] = biological target: Neu5Ac(a2-6)Gal(b1-4)GlcNAc(b1-2)Man(a1-3)[Gal(b1-4)GlcNAc(b1-2)Man(a1-6)]Man(b1-4)GlcNAc(b1-4)GlcNAc
# Summary of the method: as §1
# [14] = biological target: Neu5Ac(a2-6)Gal(b1-4)GlcNAc(b1-2)Man(a1-3)[GlcNAc(b1-2)Man(a1-6)]Man(b1-4)GlcNAc(b1-4)GlcNAc
# Summary of the method: as §1
# [15] = biological target: Neu5Ac(a2-6)Gal(b1-4)GlcNAc(b1-2)Man(a1-3)[GlcNAc(b1-4)][Neu5Ac(a2-6)Gal(b1-4)GlcNAc(b1-2)Man(a1-6)]Man(b1-4)GlcNAc(b1-4)GlcNAc
# Summary of the method: as §1
# [16] = biological target: Neu5Ac(a2-6)Gal(b1-4)GlcNAc(b1-2)Man(a1-3)[Man(a1-6)]Man(b1-4)GlcNAc(b1-4)GlcNAc
# Summary of the method: as §1
# [17] = biological target: Neu5Ac(a2-6)Gal(b1-4)GlcNAc(b1-2)Man(a1-3)[Neu5Ac(a2-3)Gal(b1-4)GlcNAc(b1-2)Man(a1-6)]Man(b1-4)GlcNAc(b1-4)GlcNAc
# Summary of the method: as §1
# [18] = biological target: Neu5Ac(a2-6)Gal(b1-4)GlcNAc(b1-2)Man(a1-3)[Neu5Ac(a2-6)Gal(b1-4)GlcNAc(b1-2)Man(a1-6)]Man(b1-4)GlcNAc(b1-4)GlcNAc
# Summary of the method: as §1
# [19] = biological target: Neu5Ac(a2-6)Gal(b1-4)GlcNAc(b1-2)Man(a1-3)[Neu5Ac(a2-6)Gal(b1-4)GlcNAc(b1-2)Man(a1-6)]Man(b1-4)GlcNAc(b1-4)[Fuc(a1-6)]GlcNAc
# Summary of the method: as §1
# [20] = biological target: Neu5Ac(a2-6)Gal(b1-4)GlcNAc(b1-2)Man(a1-6)Man(b1-4)GlcNAc(b1-4)GlcNAc
# Summary of the method: as §1
# [21] = biological target: Neu5Ac(a2-6)Gal(b1-4)GlcNAc(b1-2)Man(a1-6)[Gal(b1-4)GlcNAc(b1-2)Man(a1-3)]Man(b1-4)GlcNAc(b1-4)GlcNAc
# Summary of the method: as §1
# [22] = biological target: Neu5Ac(a2-6)Gal(b1-4)GlcNAc(b1-2)Man(a1-6)[GlcNAc(b1-2)Man(a1-3)]Man(b1-4)GlcNAc(b1-4)GlcNAc
# Summary of the method: as §1
# [23] = biological target: Neu5Ac(a2-6)Gal(b1-4)GlcNAc(b1-2)Man(a1-6)[Man(a1-3)]Man(b1-4)GlcNAc(b1-4)GlcNAc
# Summary of the method: as §1
# [24] = biological target: Neu5Ac(a2-6)Gal(b1-4)GlcNAc(b1-2)[Neu5Ac(a2-6)Gal(b1-4)GlcNAc(b1-4)]Man(a1-3)[GlcNAc(b1-4)][Neu5Ac(a2-6)Gal(b1-4)GlcNAc(b1-2)[Neu5Ac(a2-6)Gal(b1-4)GlcNAc(b1-6)]Man(a1-6)]Man(b1-4)GlcNAc(b1-4)GlcNAc
# Summary of the method: as §1
# [25] = biological target: Neu5Ac(a2-6)Gal(b1-4)GlcNAc(b1-2)[Neu5Ac(a2-6)Gal(b1-4)GlcNAc(b1-4)]Man(a1-3)[GlcNAc(b1-4)][Neu5Ac(a2-6)Gal(b1-4)GlcNAc(b1-4)Man(a1-6)]Man(b1-4)GlcNAc(b1-4)GlcNAc
# Summary of the method: as §1
# [26] = biological target: Neu5Ac(a2-6)Gal(b1-4)GlcNAc(b1-2)[Neu5Ac(a2-6)Gal(b1-4)GlcNAc(b1-6)]Man(a1-6)[Neu5Ac(a2-6)Gal(b1-4)GlcNAc(b1-2)Man(a1-3)][GlcNAc(b1-4)]Man(b1-4)GlcNAc(b1-4)GlcNAc
# Summary of the method: as §1
# [27] = biological target: Neu5Ac(a2-6)Gal(b1-4)GlcNAc(b1-3)Gal(b1-3)GlcNAc
# Summary of the method: as §1
# [28] = biological target: Neu5Ac(a2-6)Gal(b1-4)GlcNAc(b1-3)Gal(b1-4)GlcNAc
# Summary of the method: as §1
# [29] = biological target: Neu5Ac(a2-6)Gal(b1-4)GlcNAc(b1-3)Gal(b1-4)GlcNAc(b1-2)Man(a1-3)[Neu5Ac(a2-6)Gal(b1-4)GlcNAc(b1-3)Gal(b1-4)GlcNAc(b1-2)Man(a1-6)]GalNAc
# Summary of the method: as §1
# [30] = biological target: Neu5Ac(a2-6)Gal(b1-4)GlcNAc(b1-3)Gal(b1-4)GlcNAc(b1-3)Gal(b1-4)GlcNAc
# Summary of the method: as §1
# [31] = biological target: Neu5Ac(a2-6)Gal(b1-4)GlcNAc(b1-3)Gal(b1-4)GlcNAc(b1-3)Gal(b1-4)GlcNAc(b1-2)Man(a1-3)[Neu5Ac(a2-6)Gal(b1-4)GlcNAc(b1-3)Gal(b1-4)GlcNAc(b1-3)Gal(b1-4)GlcNAc(b1-2)Man(a1-6)]GalNAc
# Summary of the method: as §1
# [32] = biological target: Neu5Ac(a2-6)Gal(b1-4)GlcNAc(b1-3)Gal(b1-4)GlcNAc(b1-3)GalNAc
# Summary of the method: as §1
# [33] = biological target: Neu5Ac(a2-6)Gal(b1-4)GlcNAc(b1-3)Gal(b1-4)GlcNAc(b1-3)[Neu5Ac(a2-6)Gal(b1-4)GlcNAc(b1-3)Gal(b1-4)GlcNAc(b1-6)]GalNAc
# Summary of the method: as §1
# [34] = biological target: Neu5Ac(a2-6)Gal(b1-4)GlcNAc(b1-3)Gal(b1-4)GlcNAc(b1-6)[Gal(b1-3)]GalNAc
# Summary of the method: as §1
# [35] = biological target: Neu5Ac(a2-6)Gal(b1-4)GlcNAc(b1-3)Gal(b1-4)[Fuc(a1-3)]GlcNAc(b1-3)Gal(b1-4)[Fuc(a1-3)]GlcNAc
# Summary of the method: as §1
# [36] = biological target: Neu5Ac(a2-6)Gal(b1-4)GlcNAc(b1-3)GalNAc
# Summary of the method: as §1
# [37] = biological target: Neu5Ac(a2-6)Gal(b1-4)GlcNAc(b1-3)[Neu5Ac(a2-6)Gal(b1-4)GlcNAc(b1-6)]GalNAc
# Summary of the method: as §1
# [38] = biological target: Neu5Ac(a2-6)Gal(b1-4)GlcNAc(b1-6)GalNAc
# Summary of the method: as §1
# [39] = biological target: Neu5Ac(a2-6)Gal(b1-4)GlcNAc(b1-6)[Gal(b1-3)GlcNAc(b1-3)]Gal(b1-4)Glc
# Summary of the method: as §1
# [40] = biological target: Neu5Ac(a2-6)Gal(b1-4)GlcNAc(b1-6)[Gal(b1-3)]GalNAc
# Summary of the method: as §1
# [41] = biological target: Neu5Ac(a2-6)Gal(b1-4)GlcNAc6S
# Summary of the method: as §1
# [42] = biological target: Neu5Ac(a2-6)GalNAc
# Summary of the method: as §1
# [43] = biological target: Neu5Ac(a2-6)GalNAc(b1-4)GlcNAc
# Summary of the method: as §1
# [44] = biological target: Neu5Ac(a2-6)GalNAc(b1-4)GlcNAc6S
# Summary of the method: as §1
# [45] = biological target: Neu5Ac(a2-6)GlcNAc(b1-4)GlcNAc
# Summary of the method: as §1
binder,measurement,setting,value
B1,glycan array binding signal (z-score),[1],0.234
same,glycan array binding signal (z-score),[2],-0.166
same,glycan array binding signal (z-score),[3],-0.539
same,glycan array binding signal (z-score),[4],0.103
same,glycan array binding signal (z-score),[5],-0.482
same,glycan array binding signal (z-score),[6],0.465
same,glycan array binding signal (z-score),[7],0.1
same,glycan array binding signal (z-score),[8],-0.503
same,glycan array binding signal (z-score),[9],-0.226
same,glycan array binding signal (z-score),[10],0.493
same,glycan array binding signal (z-score),[11],-0.623
same,glycan array binding signal (z-score),[12],-0.385
same,glycan array binding signal (z-score),[13],-0.154
same,glycan array binding signal (z-score),[14],-0.135
same,glycan array binding signal (z-score),[15],-0.08
same,glycan array binding signal (z-score),[16],-0.362
same,glycan array binding signal (z-score),[17],-0.229
same,glycan array binding signal (z-score),[18],-0.265
same,glycan array binding signal (z-score),[19],0.106
same,glycan array binding signal (z-score),[20],-0.067
same,glycan array binding signal (z-score),[21],-0.141
same,glycan array binding signal (z-score),[22],-0.499
same,glycan array binding signal (z-score),[23],0.202
same,glycan array binding signal (z-score),[24],0.739
same,glycan array binding signal (z-score),[25],-0.509
same,glycan array binding signal (z-score),[26],-0.263
same,glycan array binding signal (z-score),[27],0.259
same,glycan array binding signal (z-score),[28],-0.68
same,glycan array binding signal (z-score),[29],0.228
same,glycan array binding signal (z-score),[30],-0.319
same,glycan array binding signal (z-score),[31],-0.157
same,glycan array binding signal (z-score),[32],-0.372
same,glycan array binding signal (z-score),[33],-0.295
same,glycan array binding signal (z-score),[34],-0.196
same,glycan array binding signal (z-score),[35],0.107
same,glycan array binding signal (z-score),[36],-0.619
same,glycan array binding signal (z-score),[37],-0.18
same,glycan array binding signal (z-score),[38],-0.237
same,glycan array binding signal (z-score),[39],-0.565
same,glycan array binding signal (z-score),[40],-0.424
same,glycan array binding signal (z-score),[41],-0.194
same,glycan array binding signal (z-score),[42],-0.36
same,glycan array binding signal (z-score),[43],-0.736
same,glycan array binding signal (z-score),[44],-0.452
same,glycan array binding signal (z-score),[45],-0.508
